PubChem BioAssay AID686979 (National Center for Advancing Translational Sciences (NCATS), 2013)
The whole screen tested about 420,000 compounds, of which about 50,000 (12%) were called active. Inconclusive results, whose numbers are uncertain, are shown with a selection of clear calls. The call rests on the fitted dose curve; in most records, active means well fitted inhibition curve with a large enough effect; inconclusive means small, poorly fitted or top-dose-only effect; inactive means flat fitted curve, though single readings scatter. Potencies of inconclusive entries are left out as doubtful fits.

Assay: qHTS for Inhibitors of human tyrosyl-DNA phosphodiesterase 1 (TDP1): qHTS in cells in presence of CPT; further: nearly all actives have a fitted effect of over 55% in size
Conditions: chicken DT40 Tdp1-/-;hTDP1 cells + 20 nM CPT, ATP luminescence, 48 h; activity change, negative = growth inhibition: at 46.2 µM (top of the series) unless noted
Procedure, shortened: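 Chicken DT40 Tdp1-/- cells complemented with human TDP1, 400 cells/well, exposed to compounds plus 20 nM camptothecin for at least 48 h at 37 C; viability read as ATP content by CellTiter-Glo luminescence.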
On the % scale 0 is the no-effect control and ±100 the full control effect; potency means the concentration at half of the fitted maximal effect; tags describe the fitted curve by direction and shape.

Compound	Potency	activity change, negative = growth inhibition
CCc1nn(C(CC)C(=O)NCc2ccc(OC)c(OC)c2)c(=O)c2cc3oc(C)cc3n12 (stereo not drawn)	active: 16.4 µM	
Cc1nn(-c2nc(-c3ccccc3)cc(C(F)(F)F)n2)c(C)c1Cl	inconclusive [inhibitor, single point]	
Cc1ccc(OCCSc2nc(-c3ccccc3C)nc3cc(=O)[nH]n23)cc1Cl	active: 16.4 µM	
COc1ccccc1N1CCN(c2ncnc3c2c(-c2ccccc2)cn3-c2cccc(Cl)c2)CC1	inconclusive [inhibitor, single point]	
Cn1c2ccccc2c2cc(/C=N/NC(=O)c3ccc(O)cc3O)ccc21	inconclusive [inhibitor, single point]	
COc1cc(/C=C(\C#N)c2nc3ccc(C)cc3[nH]2)ccc1OCc1ccc(C)cc1	active: 11.6 µM	
COC(=O)c1cc2sccc2n1CC(=O)Nc1cccc(SC)c1	inconclusive [inhibitor, partial curve]	
CCOc1ccc(C(=O)CCC(=O)N2CCC(C(=O)OC)CC2)cc1		inactive: -1.28%
O=C(Nc1ccc2c(c1)OCCO2)c1ccc(Cl)cc1	inconclusive [inhibitor, single point]	
CS(=O)(=O)c1ccc(NC(=O)CCN2C(=O)C3CC=CCC3C2=O)cc1 (stereo not drawn)		inactive: 0.741%
COc1ccc(CCC(=O)Nc2ccc(C)c([N+](=O)[O-])c2)cc1		inactive: -10.3%
O=c1[nH]nnc2c1ncn2C1OC(CO)C(O)C1O (stereo not drawn)	inconclusive [inhibitor, single point]	
Brc1ccc(CNc2nc3ccccc3n2CCN2CCCCC2)cc1	inconclusive [inhibitor, single point]	
COc1ccc(NC(=O)CCCCCN2C(=O)[C@@H]3Cc4ccccc4CN3C2=O)cc1Cl	inconclusive [inhibitor, single point]	
CCCCNC(=O)c1cccc(NC(=O)c2nsc3ccccc23)c1	inconclusive [inhibitor, single point]	
COc1cccc(OC)c1C(=O)NCCc1sc(-c2cccc(F)c2)nc1C	inconclusive [inhibitor, single point]	
COc1ccc(S(=O)(=O)N2CCC(Oc3ccc(-n4cnnn4)cc3)CC2)cc1	active: 10.3 µM	
CCOc1[nH]n(-c2ccc(Cl)cc2)c(=O)c1C=Nc1ccc(OC)cc1	inconclusive [inhibitor, single point]	
CC(=O)c1c(C)[nH]c(C(=O)Nc2cccc(S(=O)(=O)N3CCCCC3)c2)c1C	inconclusive [inhibitor, single point]	
O=C(O)CCn1[nH]c(=O)ccc1=O		inactive: -8.94%
CCN(C(=O)c1cn(-c2cccc(OC)c2)c(=O)c2ccccc12)c1ccccc1C	inconclusive [inhibitor, single point]	
O=S(=O)(c1ccccc1Cl)N1CCC(O)(c2ccc3c(c2)OCO3)CC1	inconclusive [inhibitor, partial curve]	
O=C(N/N=C/c1cn(-c2ccccc2)nc1-c1cc2ccccc2o1)c1cccnc1	active: 3.26 µM	
CCc1ccc(C2C(C(=O)Nc3ccccc3OC)=C(C)Nc3c(C(=O)Nc4ccc(C)cc4)cnn32)cc1 (stereo not drawn)	inconclusive [inhibitor, single point]	
CC(=O)Nc1ccc(NC(=O)c2nc(S(=O)(=O)Cc3ccc(F)cc3)ncc2Cl)cc1	active: 0.731 µM	

Compound	Potency	activity change, negative = growth inhibition
O=C(N(c1ccccc1)c1ccccc1)N(c1ccccc1)c1ccccc1	inconclusive [inhibitor, single point]	
O=C(CSc1nnc(-c2ccco2)o1)N1c2ccccc2CCc2ccccc21	inconclusive [inhibitor, single point]	
CC(C)COC(=O)Nc1nnc(SCCOc2ccccc2)s1		inactive: -11.1%
CC(=O)c1cc2c(cc1NC(=O)c1ccc(-n3nc(C)cc3C)cc1)OCO2	inconclusive [inhibitor, single point]	
Cc1cc(NC(=O)c2ccccc2O)nc(C)n1		inactive: 2.06%
Cc1ccc(C)c(NC(=O)CSc2nccn2-c2cccc(C)c2C)c1	active: 18.4 µM	
COc1ccc(C(=O)Nc2ccccc2-c2nc3ccccc3s2)cc1OC	inconclusive [inhibitor, partial curve]	
CCOC(=O)c1cc(/C(C)=N/OC(=O)c2ccc(C(C)(C)C)cc2)on1	inconclusive [inhibitor, single point]	
COc1cc(C2c3c(oc4cc(C)c(C)cc4c3=O)C(=O)N2c2cc(C)ccn2)ccc1O (stereo not drawn)	inconclusive [inhibitor, single point]	
COc1ccc(NC2CCCN(C(=O)c3ccc4nccnc4c3)C2)cc1OC (stereo not drawn)		inactive: -11.9%
CC(C)CCNC(=O)Cn1c(=O)oc2cc(S(=O)(=O)N3CC(C)CC(C)C3)ccc21 (stereo not drawn)	active: 23.1 µM	
O=C(c1cccc(S(=O)(=O)NCc2ccccc2)c1)N1CCN(c2ccc(F)cc2)CC1	inconclusive [inhibitor, single point]	
COc1cc2ccccc2cc1C(=O)N1CC(C)CC(C)C1 (stereo not drawn)	inconclusive [inhibitor, partial curve, poor fit]	
CC(C)C[C@H](NC(=O)c1nc[nH]c1C(=O)N[C@@H](CC(C)C)C(=O)OCc1ccccc1)C(=O)OCc1ccccc1	active: 23.1 µM	
Cc1ccccc1SCC(=O)N/N=C/c1ccc(F)cc1	inconclusive [inhibitor, single point]	
CCNC(=O)C1(C)CCCN(C(=O)c2cccc(C)c2C)C1 (stereo not drawn)		inactive: 4.88%
COc1ccc(-c2nnc(CSc3nc4ccccc4c(=O)n3C)o2)cc1OC	active: 14.6 µM	
Cc1cc(=O)n2c3ccccc3n(CC(O)CN3CCCC3)c2c1C#N (stereo not drawn)	inconclusive [inhibitor, single point]	
CCCN(Cc1cccs1)C(=O)Nc1cc(C)cc(C)c1	active: 25.9 µM	
Cc1cc(C)nc(OC(C(=O)O)C(OCc2ccccc2)(c2ccccc2)c2ccccc2)n1 (stereo not drawn)		inactive: -0.309%
CCOC(=O)C(=CNc1ccc(N2CCOCC2)cc1)C(=O)OCC	inconclusive [inhibitor, single point]	
CCOC(=O)N1CCC(C(=O)NNC(=O)c2ccc(Cl)cc2Cl)CC1		inactive: -3.11%
Cc1cccc(NC(=S)N2CCC(C(=O)c3ccc(F)cc3)CC2)c1C		inactive: -41.2%
CCN(CC)C(=O)Cn1c(=O)n(-c2ccc(Cl)cc2)c(=O)c2c3c(sc21)CCCCC3	inconclusive [inhibitor, single point]	
COc1ccccc1CC(=O)Nc1ccc(O)cc1C(=O)O		inactive: -15.8%

Compound	Potency	activity change, negative = growth inhibition
COc1cc(C(=O)N2CCC(C(=O)Nc3cccc(C(C)=O)c3)CC2)cc(OC)c1OC		inconclusive: -30.9% [inhibitor]
CCC(=O)Nc1cc(OC)c(NC(=O)c2ccccc2)cc1OC		inactive: -22.8%
COc1ccc(CNc2nc(NCc3ccc(OC)cc3)c3ncn(C4CCCC4)c3n2)cc1	active: 3.26 µM	
OC[C@@H]1CN(Cc2ccco2)C[C@H](n2cnc3c(N4CCN(c5ccccc5)CC4)ncnc32)O1	active: 23.1 µM	
O=[N+]([O-])c1ccc(Sc2cccc[n+]2[O-])c2nonc12	active: 0.0058 µM	
Cc1nn(C)c2c1c(-c1ccccc1)cc(=O)n2Cc1ccc(F)cc1Cl		inactive: -25.4%
CCOC(=O)C1=C(COC(=O)/C=C/c2cccc(Cl)c2)NC(=O)NC1C (stereo not drawn)		inactive: 1.32%
O=[N+]([O-])c1ccc(CSc2nc3ccccc3[nH]2)cc1	inconclusive [inhibitor, single point]	
CCNC(=S)NNC(=O)c1cccn(Cc2ccc(Cl)cc2Cl)c1=O	inconclusive [inhibitor, single point]	
COc1cc(C(=S)N2CCOCC2)ccc1OC(=O)c1cc(OC)c(OC)c(OC)c1		inactive: -29.6%
Cc1ccc(NC(=O)c2ccc3c(c2)OCCO3)nc1	inconclusive [inhibitor, single point]	
O=C(O)C(Cc1c[nH]c2ccccc12)NS(=O)(=O)c1cccc(Cl)c1Cl (stereo not drawn)		inactive: 3.28%
Cc1ccccc1-n1c(SCC(=O)Nc2cccc3ccccc23)nc(O)cc1=O		inactive: -1.44%
CCOc1ccc(N2CC(NC(=O)Cc3cccs3)CC2=O)cc1 (stereo not drawn)		inactive: 12.9%
Cc1ccc(S(=O)(=O)N2CCN(C(=O)c3ccccc3Cc3ccccc3)CC2)c(C)c1	inconclusive [inhibitor, single point]	
CCOc1cc(-c2cc(-c3ccc(C)o3)nc(N)c2C#N)ccc1O	active: 16.4 µM	
Cc1c(Cl)cccc1NC(=S)N(CCCN1CCOCC1)Cc1ccco1	inconclusive [inhibitor, single point]	
CC(C)[C@H](NC(=O)c1cc2cc(Cl)ccc2n1C)C(=O)N[C@@H](C(=O)O)c1ccccc1		inactive: -2.41%
CCOc1ccc(NC(=O)/C(C#N)=C\c2ccc(N3CCCC3)c(C)c2)cc1	inconclusive [inhibitor, single point]	
Cc1ncc(CO)c(/C=N/NC(=S)Nc2ccc(Cl)c(Cl)c2)c1O	active: 16.4 µM	
CC(C)=C1SC(N2CCN(c3cccc(C)c3)CC2)=NC1=O	active: 20.6 µM	
O=C(Nc1ccccc1Cl)C1CCCN(c2ncnc3c2nc2n3CCCCC2)C1 (stereo not drawn)	inconclusive [inhibitor, single point]	
c1ccc(Cn2c(Sc3nnnn3-c3ccccc3)nnc2-c2ccccc2)cc1	inconclusive [inhibitor, partial curve, poor fit]	
